In general, Kd refers to a measure of binding affinity in units of concentration. A word on the koff: it is the rate constant with which the complex falls apart. In general, kon refers to the rate constant with which the complex forms.

Kd, koff and kon data for 1 molecule are collected here from US20240141042A1 (INNATE PHARMA, published 2024).

For experiment [1], the target named is T1, Human NKp46 recombinant proteins (human, UniProt O76036 22-258).
T1 construct: also called recombinant human NKp46 proteins
T1 sequence: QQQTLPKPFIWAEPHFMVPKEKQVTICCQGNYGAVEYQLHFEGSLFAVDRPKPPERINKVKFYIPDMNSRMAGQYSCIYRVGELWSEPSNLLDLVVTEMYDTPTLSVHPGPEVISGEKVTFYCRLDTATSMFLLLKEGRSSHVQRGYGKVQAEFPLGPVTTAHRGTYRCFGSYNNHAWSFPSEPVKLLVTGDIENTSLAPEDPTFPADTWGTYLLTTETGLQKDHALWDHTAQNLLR
Nature of the experiment: SPR, bispecific captured on Protein-A chip, human NKp46 injected, 1:1 kinetic model. Here is the method:
SPR measurements were performed on a Biacore T100 apparatus (Biacore GE Healthcare) at 25° C. In all Biacore experiments HBS-EP+(Biacore GE Healthcare) and NaOH 10 mM served as running buffer and regeneration buffer respectively. Sensorgrams were analyzed with Biacore T100 Evaluation software. Protein-A was purchase from (GE Healthcare). Human NKp46 recombinant proteins were cloned, produced and purified at Innate Pharma.
Protein-A proteins were immobilized covalently to carboxyl groups in the dextran layer on a Sensor Chip CM5. The chip surface was activated with EDC/NHS (N-ethyl-N′-(3-dimethylaminopropyl) carbodiimidehydrochloride and N-hydroxysuccinimide (Biacore GE Healthcare)). Protein-A was diluted to 10 μg/ml in coupling buffer (10 mM acetate, pH 5.6) and injected until the appropriate immobilization level was reached (i.e. 2000 RU). Deactivation of the remaining activated groups was performed using 100 mM ethanolamine pH 8 (Biacore GE Healthcare).
Monovalent affinity study was done following a regular Capture-Kinetic protocol recommended by the manufacturer (Biacore GE Healthcare kinetic wizard). Seven serial dilutions of human NKp46 recombinant proteins, ranging from 6.25 to 400 nM were sequentially injected over the captured Bi-Specific antibodies and allowed to dissociate for 10 min before regeneration. The entire sensorgram sets were fitted using the 1:1 kinetic binding model.
For orientation: In SPR one partner is held on a chip, and binding of the other changes the refractive index at the surface.

For another experiment, the target named is T2, human FcRn (Example 10) (human, UniProt P55899 fragment; P61769 fragment, limits assumed).
T2 construct: Construct not described; Beta-2-microglobulin is not mentioned; also called recombinant FcRn proteins
Nature of the experiment: SPR, FcRn immobilized on CM5, Steady State.

Chain of human FcRn (Example 10) (P55899 24-297 limits assumed, form in doubt, chain 1 of 2): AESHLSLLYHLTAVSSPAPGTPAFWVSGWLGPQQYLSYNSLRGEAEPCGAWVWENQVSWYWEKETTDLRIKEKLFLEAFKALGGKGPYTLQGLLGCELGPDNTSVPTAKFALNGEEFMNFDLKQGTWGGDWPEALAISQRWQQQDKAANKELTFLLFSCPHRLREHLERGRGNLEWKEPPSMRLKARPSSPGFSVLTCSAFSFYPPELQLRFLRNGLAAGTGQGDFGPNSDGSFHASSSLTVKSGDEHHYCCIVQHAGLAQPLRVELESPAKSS
Chain of human FcRn (Example 10) (P61769 21-119 limits assumed, form in doubt, chain 2 of 2, further chain): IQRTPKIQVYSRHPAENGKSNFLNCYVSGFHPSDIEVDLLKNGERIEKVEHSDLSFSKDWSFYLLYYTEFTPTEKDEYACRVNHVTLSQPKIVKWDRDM

B1: CD19-F3-NKp46-3 (bispecific antibody)
chain: DIQLTQSPASLAVSLGQRATISCKASQSVDYDGDSYLNWYQQIPGQPPKLLIYDASNLVSGIPPRFSGSGSGTDFTLNIHPVEKVDAATYHCQQSTEDPWTFGGGTKLEIKGGGGSGGGGSGGGGSQVQLQQSGAELVRPGSSVKISCKASGYAFSSYWMNWVKQRPGQGLEWIGQIWPGDGDTNYNGKFKGKATLTADESSSTAYMQLSSLASEDSAVYFCARRETTTVGRYYYAMDYWGQGTTVTVSSGGGSS[sequence of human IgG1 Fc not given]GGGGSGGGGSGGGGSGQPREPQVYTLPPSREEMTKNQVSLTCLVKGFYPSDIAVEWESNGQPENNYKTTPPVLDSDGSFFLYSKLTVDKSRWQQGNVFSCSVMHEALHNHYTQKSLSLSPGSTGSEVQLQQSGPELVKPGASVKISCKTSGYTFTEYTMHWVKQSHGKSLEWIGGISPNIGGTSYNQKFKGKATLTVDKSSSTAYMELRSLTSEDSAVYYCARRGGSFDYWGQGTTLTVSSVEGGSGGSGGSGGSGGVDDIVMTQSPATLSVTPGDRVSLSCRASQSISDYLHWYQQKSHESPRLLIKYASQSISGIPSRFSGSGSGSDFTLSINSVEPEDVGVYYCQNGHSFPLTFGAGTKLELK
notes: Single chain with tandem CH3
On to B1, for which, in experiment [1], the dissociation constant (Kd) was determined as 28 nM, the koff was determined as 0.0112 s⁻¹ and the kon turned out to be 390000 M⁻¹ s⁻¹. For the same molecule, the Kd with human FcRn (Example 10) was 474 nM.
